In PubChem BioAssay (Tox21):
Values joined by “and” are separate entries in the source; they are usually repeats but may differ in a detail not shown here. Equal values may be shown once. The shares of active, inactive and inconclusive entries below differ from those in the screen. A potency beside an inconclusive call is a rough fit, not a confirmed value. More than one record can exist for a structure, and the calls need not agree. Active and inactive are the calls of the source. Calls follow the shape of the dose curve; as a rule, active = well fitted cell-killing curve with a large enough effect in the repeat runs; inconclusive = weak or mixed curves, or effect the other way; inactive = no such curve, though single readings can be large or run the other way.

Experiment: qHTS assay to identify small molecule antagonists of the retinoid-related orphan receptor gamma (ROR-gamma) signaling pathway - cell viability counter screen (AID 1159520); also: nearly all actives have a fitted effect of over 50% in size
Settings: Tet-on RORgamma CHO cells viability, ATP luminescence, 16 h; series mostly up to 92.4 µM
How it was run: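 Tet-on ROR gamma CHO cells (1,000/well) were plated 4 hr, given compounds in DMSO for 2 hr at 37 C, then induced with 1 uM final doxycycline for 16 hr. Viability was read as ATP by CellTiter-Glo luminescence after 30 min.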
Potency is read from the fitted curve at half-maximal effect; tags tell the direction and shape of the fitted curve.

Structure (SMILES) | Potency
Cc1c(C)c2c(c(C)c1O)CCC(C)(COc1ccc(CC3SC(=O)NC3=O)cc1)O2 (stereo unspecified) | inconclusive: 54.5 µM [cytotoxic, partial curve]
CCCCCCOc1cc(C)c(O)c(C)c1C | active: 61.9 µM
Cc1cc(O)c(C(C)(C)C)cc1Sc1cc(C(C)(C)C)c(O)cc1C | active: 8.62 µM
CCCCCCCCCCCCN(CCO)CCO | inconclusive: 60.9 µM [cytotoxic, single point]
CCCCCCCCCCCCCC[P+](CCCC)(CCCC)CCCC | active: 13.6 µM and active: 10.9 µM
CCCCC(CC)COC(=O)c1ccc(O)cc1 (stereo unspecified) | inconclusive: 54.3 µM [cytotoxic, partial curve] and inconclusive: 30.6 µM [cytotoxic, partial curve, poor fit]
c1ccc(Nc2cccc3ccccc23)cc1 | inconclusive: 61.9 µM [cytotoxic, partial curve, poor fit] and inconclusive: 54.5 µM [cytotoxic, partial curve]
CCCCCCCOC(=O)c1ccc(O)cc1 | inconclusive: 61.2 µM [cytotoxic, partial curve, poor fit]
CC(C)(C)c1ccc(C(O)CCCN2CCC(C(O)(c3ccccc3)c3ccccc3)CC2)cc1 (stereo unspecified) | active: 18.8 µM
CCCCCCCC/C=C/CCCCCCCC1=NCCN1CCO | active: 68.6 µM
CSc1ccc2c(c1)N(CCC1CCCCN1C)c1ccccc1S2 (stereo unspecified) | active: 48.4 µM
Oc1ccc(O)cc1 | inconclusive: 21.6 µM [cytotoxic, full curve] and inconclusive: 27.3 µM [cytotoxic, partial curve, poor fit] and inconclusive: 33.5 µM [cytotoxic, single point]
CCCCCCCCCCCCCC[P+](CCCC)(CCCC)CCCC (tested in a mixture with another compound) | active: 15.4 µM
C=C(c1ccc(C(=O)O)cc1)c1cc2c(cc1C)C(C)(C)CCC2(C)C | inconclusive: 29.8 µM [cytotoxic, single point]
CC1=C(/C=C/C(C)=C/C=C/C(C)=C\C=O)C(C)(C)CCC1 | active: 57.9 µM
COc1cccc(-c2ccc(/C=C\CN3CCCCCC3)cc2Cl)c1 | inconclusive: 54.2 µM [cytotoxic, partial curve]
